Experiment [1] relates to HCT-15 colon. Kind of experiment: NCI-60 one-dose screen, 48 h (100 = growth as untreated, 0 = no growth, -100 = all killed). Conditions: 25 µM.
Experiment [2] concerns HT29 colon. Described as above. The note with it: 0.25 µM.

Some compounds were tested as several samples or in several runs, with calls that do not always agree.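 Step 1: grow cells in 96-well plates. Step 2: add test compound at a single concentration. Step 3: incubate 48 h. Step 4: record percent growth.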 The source holds more than one record for some entries. This is not the full list of results. There may be further records. The calls were made as follows: active = growth percent below 10; inactive = the rest. This drug was run again and again over the years, at its own concentration, as given; one value stands for one run. Brackets with × count equal records among those shown.

Our source for the growth values is PubChem BioAssay (NCI).

For the compound `COc1cccc2c1C(=O)c1c(O)c3c(c(O)c1C2=O)C[C@@](O)(C(=O)CO)C[C@@H]3OC1CC(N)C(O)C(C)O1` (stereo not given in full), the growth entry in experiment [1] (runs of 1995) is “active: 6.68, -8.25, -19.4, 2.13, 7.78, -27.4, 3.76, -17, -8.5, 1.54, -11.6, -16.8, -14.5, 7.83, 5.32, -43.7, -14.7, 1.01, 3.72, 2.83, -40.4, -41.5, 2.38, -18.1, 1.82, -9.49, 3.84, 3.74, 0.61, -24.5% and inactive: 10.2, 17.5, 10.7, 19.7, 17.7, 20.7, 13.7, 10.9, 11.1%”; in experiment [1] (runs of 1996) it was “active: 4.27, 5.48, -8.75, 8.04, 7.93, 9.26, -36.5, 4.45, 7.18, 5.25, -19.5, 6.91, 6.99, -12.6, 3, -59.5, 6.08, 8.84, 8.63, -11.5 (2×), -11.6, 0.0972, -20, -7.22, -28.7, 1.7, 3.75, 0.279, -10.7, -8.28, -31.6, -7.89, -13.1, -26.4, -14.2, -29.4, -6.25, 0.552, -4.67, 4.6, -5.19, -27.1, 8.53, 1.12, -9.28, 0, 2.4, 1.33, 1.36, 7.73% and inactive: 28.2, 12, 18.2, 91.7, 12.9, 11.3, 38.9, 14.7%”; in experiment [1] (runs of 1997), “active: 5.75, 4.46, 6.6, 7.96, -24.5, -30.5, -5.04, -0.769, -9.92, -20.5, -1.72, 4.54, -8.49, -23.7, -0.881, -25.8, -1.53, -15.2, -18.4 (2×), -38.5, -23, 0.981, -2.4, 1.06, 6.75, 1.55, 4.44, 6.02, -21.8 (2×), -0.752, 6.87% and inactive: 10.6, 13.6, 14.3, 12.9, 14.9, 25.7, 12.1, 17.1, 28%”; in experiment [1] (runs of 1998), “active: 5.94, -16.4 (2×), 8.17, -30.9, -2.39, 3.81, 1.23, -20.6, -3.38, -26.5, 6.61, -11.1, 3.88, -9.86, 3.3, -24.4, 0.996, -6.43, 8, -1.69, -40.7, 0.677% and inactive: 11.3%, 12.2%, 19.4%”; in experiment [1] (runs of 1999), “active: -13.4, -9.08, 3.11, 6.07, -4.6, -14.2, -100, -83.1, 0.914, 0.0912, 4.91, 1.47, 1.35, -34.8, -92.4, 2.56, 1.41, 2.2%”; in experiment [1] (runs of 2000), “active: -100% (2×), 1.06%, -30.1%”. In addition, the growth result in experiment [2] (runs of 2006) is “inactive: 41.7%, 62.7%”; in experiment [2] (runs of 2007), “inactive: 50.2, 55.5, 37.8, 50.9, 49.6, 60.2, 45.1, 49.5, 47.7, 48.3, 50.1, 46.4, 47.1, 58.6, 77.2, 66.6 (2×), 57.4, 48.6, 55.1, 49.1, 57.2, 57.1, 69.7, 76, 61.2, 52.7, 14.6, 57.3, 59.9, 60 (2×), 60.7, 64.3, 45, 59.1, 45.6, 46.1, 47.5, 59.2, 59.8%”; in experiment [2] (runs of 2008), “inactive: 58.5 (3×), 52.8, 57.7, 47.7, 47.9, 53.7, 53.5, 46.2, 56.1, 60.3, 63.5, 59.8, 31.4, 45.6, 41.6, 46.4, 45.9 (2×), 39.3, 38.4, 34.9, 37.2, 50.2, 48.7, 95.6, 46.8, 28, 33.7, 45.5, 23.9, 23.3, 42.4, 35.6, 38.1, 34.1, 43.8, 41, 55.3, 54.3, 54.9, 53.6, 49.4, 55.6, 63.8, 58.7, 45.4, 44.7, 49.2, 40.9, 47% and active: -16%, -62%”; in experiment [2] (runs of 2009), “inactive: 43.1, 48.7 (2×), 48.3 (3×), 44.7, 40.3, 38.2 (2×), 49.4 (2×), 46.4, 51.8, 45.4, 55.5, 46.9, 47.7, 46.6, 50.7, 47.5, 37.5, 43.8, 41.9 (2×), 40.7, 33.8, 47.8, 48.5, 57.7, 53.3, 49.3, 63.9, 55.1, 41.7, 43.9, 45.8, 54.9, 50.5, 46.1, 43.4, 49.2, 55.3, 54.1, 56.5, 23.5, 64.4, 53.7, 35.8 (2×), 42.4, 41.1, 28.2, 43.2 (3×), 39.6, 33.4, 31.1, 45.1, 41.2, 32.5, 44.6, 45.5, 42.2, 40.2%”; in experiment [2] (runs of 2010), “inactive: 65, 44.2, 39.8, 45.6 (2×), 31.6, 57.2, 50.6, 45.1, 42.9 (2×), 41.5 (2×), 37.9 (2×), 39.4, 36.8, 48.7, 49.4 (2×), 30.7, 42.3, 37.5, 31.3, 48.8, 33.9, 32.9, 27.8, 44.7, 37.7, 40.4, 36, 23.9, 39.9, 30.1, 42.7, 46.5, 46.6, 47.9, 45.5, 49.1, 51.4, 47.7, 43.5, 40.6, 47.3, 53.6, 38.5, 46.7, 39.6%”; in experiment [2] (runs of 2011), “inactive: 44.9, 40.8, 37.5 (2×), 44.6, 51.1, 64, 49.6, 40.3, 34.4, 45.4 (2×), 52 (3×), 43.9, 46 (3×), 46.5, 61, 58.6 (2×), 61.1, 54.8, 57.3, 52.1, 56 (2×), 53.1, 55.8, 45.8, 46.4, 55.5, 44.5, 43.1, 58.4, 41.5, 42.9, 46.7, 46.2, 39.2, 62.5, 53.9 (2×), 44.4, 41.1, 36.7, 42, 41.7, 46.6, 49.1, 54.4, 58%”. Moreover, the growth entry in experiment [2] (runs of 2012) is “inactive: 52.6 (2×), 38, 47.9 (2×), 48.6, 43.4, 48, 51.8 (2×), 54.4 (2×), 57.3, 42.3, 39.7, 43.9, 48.5, 39.4, 41.5, 35.8, 35, 39, 41.2, 42.2, 42.6, 45.8, 47.4, 54.9, 55.8 (2×), 62.1, 58.7, 54.1, 55.3, 56.2, 68.1, 60.6, 58, 53.3 (2×), 50.2, 55.1, 42.1, 59, 53.1, 68.5, 62, 61.6, 64.2, 57.7, 67.5, 70.9, 63.8, 63, 51.1, 41.9, 50, 51.6, 51.3, 50.5, 62.3, 59.3, 53.4, 48.4, 47.1, 47.3, 56.8, 59.4%”; in experiment [2] (runs of 2013), “inactive: 48.7, 64, 57.5, 52.6, 56.5, 59.2, 64.6, 54.4, 58.6, 66.5, 69.4, 58.5 (3×), 66.2 (2×), 55.6, 60.3 (2×), 57.6, 62.3, 64.4, 56.3 (2×), 67.4 (2×), 73.4, 89.6, 57, 66.9 (2×), 64.5, 65.9, 66.6, 60.2, 62.9, 68.6, 69.8, 71.5, 62.2, 66, 60.7, 58, 67, 58.7 (2×), 64.3, 57.3, 60.5, 61 (2×), 67.3, 57.4, 65, 68.7, 68.5, 58.4, 50.9, 52.1, 55.3, 49.5, 50.2, 53.7, 49.9, 54.8, 57.1, 58.1, 61.1, 45.7, 47.9, 49.4%”; in experiment [2] (runs of 2014), “inactive: 50.5, 55.5 (2×), 57.1, 56.8, 60.4, 55.2, 39.7, 24.7, 44, 47.5 (2×), 52.1, 54.8 (2×), 48.3, 51.6, 52.8, 55, 58.7, 59, 52.7 (3×), 56, 48.7, 49.3, 51.1, 52.2 (2×), 46.1, 46.5, 47.7, 49.5 (2×), 46.2, 45, 43.8 (3×), 46.9, 48.2, 49.9, 52.6 (2×), 44.6 (2×), 52.4, 49.1, 53.7, 50.6, 41.2, 39.3, 40.5, 47, 42.1, 44.2, 31.8, 28, 51.8, 20.3, 39.8, 48.8, 23.8, 41.3, 42.8, 43.3, 36.7, 36.2, 47.8, 37.7, 37.3, 49.2, 45.6, 47.3, 44.9, 33.8, 33.5, 38.5, 40.7%”.
